Measured values published in PubChem BioAssay (NCATS).
The shares of active, inactive and inconclusive entries below differ from those in the screen. Where the call is inconclusive, the potency comes from a doubtful curve fit. Active and inactive are the calls of the source. Calls come from the whole dose curve; as a rule, active = well fitted curve in the direction sought with a large enough effect; inconclusive = small, poorly fitted or top-dose-only effect, or another doubt; inactive = no such curve, though single readings can be large; an effect the other way counts as inactive or inconclusive.

Key:
[1] = biological target: Flap endonuclease 1 (Homo sapiens) (UniProt P39748); assay: qHTS Assay for the Inhibitors of FEN1: Confirmatory Assay for Cherry-picked Compounds (AID 720498); details: FEN1 flap cleavage, TAMRA/BHQ2 fluorogenic DNA substrate; note: nearly all actives have a fitted effect of over 60% in size
Sequence of UniProt P39748 (P39748 whole entry, looked up): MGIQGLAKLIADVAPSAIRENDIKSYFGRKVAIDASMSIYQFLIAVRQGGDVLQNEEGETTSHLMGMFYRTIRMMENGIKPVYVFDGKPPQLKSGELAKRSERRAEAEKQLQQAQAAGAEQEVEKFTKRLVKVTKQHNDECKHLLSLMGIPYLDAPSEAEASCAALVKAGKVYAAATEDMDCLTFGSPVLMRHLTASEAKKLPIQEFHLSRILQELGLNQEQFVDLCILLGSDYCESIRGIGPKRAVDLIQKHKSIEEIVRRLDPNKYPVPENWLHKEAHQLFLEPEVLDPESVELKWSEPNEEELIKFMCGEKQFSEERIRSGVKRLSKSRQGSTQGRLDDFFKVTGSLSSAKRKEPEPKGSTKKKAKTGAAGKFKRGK
How it was run: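 Human FEN1 (10 nM reagent) was preincubated with compounds for 15 min at room temperature, then 50 nM final double-flap DNA substrate (5'-TAMRA flap, BHQ-2 quencher strand) was added. Fluorescence (ex 525/em 598 nm) was read at 0 and 15 min.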

[2] = biological target: Bifunctional 3'-5' exonuclease/ATP-dependent helicase WRN (Homo sapiens) (UniProt Q14191); assay: qHTS for Inhibitors of WRN Helicase: Confirmatory Assay for Cherry-picked Compounds. (AID 720497); details: WRN helicase DNA unwinding, fluorescence kinetic; series mostly up to 57.1 µM; note: nearly all actives have a fitted effect of over 65% in size
Sequence of UniProt Q14191 (Q14191 whole entry, looked up): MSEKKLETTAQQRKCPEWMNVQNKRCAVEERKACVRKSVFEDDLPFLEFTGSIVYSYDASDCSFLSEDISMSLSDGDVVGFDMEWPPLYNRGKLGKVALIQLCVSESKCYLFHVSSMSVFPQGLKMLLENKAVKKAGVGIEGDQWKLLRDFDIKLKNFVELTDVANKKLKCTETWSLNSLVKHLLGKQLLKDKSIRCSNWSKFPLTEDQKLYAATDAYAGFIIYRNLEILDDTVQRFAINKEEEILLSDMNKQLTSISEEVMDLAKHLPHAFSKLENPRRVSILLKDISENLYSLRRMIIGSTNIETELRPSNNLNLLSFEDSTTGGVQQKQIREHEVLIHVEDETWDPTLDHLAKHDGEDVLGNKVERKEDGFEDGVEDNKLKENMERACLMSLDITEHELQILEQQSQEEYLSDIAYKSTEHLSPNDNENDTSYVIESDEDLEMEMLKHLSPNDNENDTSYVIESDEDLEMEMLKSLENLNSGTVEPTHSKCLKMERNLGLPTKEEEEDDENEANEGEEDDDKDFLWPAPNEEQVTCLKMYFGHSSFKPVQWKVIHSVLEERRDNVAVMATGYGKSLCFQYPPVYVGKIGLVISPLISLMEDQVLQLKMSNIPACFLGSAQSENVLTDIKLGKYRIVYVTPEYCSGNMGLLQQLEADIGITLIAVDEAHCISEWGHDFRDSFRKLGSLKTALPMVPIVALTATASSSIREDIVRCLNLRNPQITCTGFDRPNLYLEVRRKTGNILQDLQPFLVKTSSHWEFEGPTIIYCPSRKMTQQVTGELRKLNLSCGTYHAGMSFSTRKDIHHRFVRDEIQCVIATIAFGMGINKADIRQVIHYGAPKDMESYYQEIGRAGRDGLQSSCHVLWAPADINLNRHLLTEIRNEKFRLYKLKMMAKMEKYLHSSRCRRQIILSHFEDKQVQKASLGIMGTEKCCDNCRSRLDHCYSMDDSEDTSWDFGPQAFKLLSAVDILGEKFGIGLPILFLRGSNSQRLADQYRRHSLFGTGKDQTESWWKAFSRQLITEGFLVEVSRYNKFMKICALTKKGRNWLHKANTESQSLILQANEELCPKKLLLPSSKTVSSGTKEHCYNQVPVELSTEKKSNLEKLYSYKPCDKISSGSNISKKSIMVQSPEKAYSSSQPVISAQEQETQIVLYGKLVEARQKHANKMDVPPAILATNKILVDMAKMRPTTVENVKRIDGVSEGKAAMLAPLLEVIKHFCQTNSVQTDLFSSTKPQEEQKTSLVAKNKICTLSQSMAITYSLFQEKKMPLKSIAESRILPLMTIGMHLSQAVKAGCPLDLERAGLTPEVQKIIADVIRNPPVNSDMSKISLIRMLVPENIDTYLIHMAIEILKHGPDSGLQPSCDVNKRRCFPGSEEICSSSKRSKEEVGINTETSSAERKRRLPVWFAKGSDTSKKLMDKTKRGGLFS
How it was run: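 Kinetic fluorescence helicase read-out (525 nm excitation, 598 nm emission) on a forked duplex substrate at 100 nM with 2 mM ATP. Enzyme: 20 nM WRN, exposed to compound for 15 min at room temperature. Responses normalized to buffer-only and positive-control wells.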

[3] = biological target: RecQ-like DNA helicase BLM (Homo sapiens) (UniProt P54132); assay: qHTS for Inhibitors of WRN Helicase: BLM Helicase Counterscreen for WRN Inhibitors (AID 720503); details: Recombinant BLM helicase DNA unwinding, red fluorescence; series mostly up to 57.1 µM; note: nearly all actives have a fitted effect of over 60% in size
Sequence of UniProt P54132 (P54132 whole entry, looked up): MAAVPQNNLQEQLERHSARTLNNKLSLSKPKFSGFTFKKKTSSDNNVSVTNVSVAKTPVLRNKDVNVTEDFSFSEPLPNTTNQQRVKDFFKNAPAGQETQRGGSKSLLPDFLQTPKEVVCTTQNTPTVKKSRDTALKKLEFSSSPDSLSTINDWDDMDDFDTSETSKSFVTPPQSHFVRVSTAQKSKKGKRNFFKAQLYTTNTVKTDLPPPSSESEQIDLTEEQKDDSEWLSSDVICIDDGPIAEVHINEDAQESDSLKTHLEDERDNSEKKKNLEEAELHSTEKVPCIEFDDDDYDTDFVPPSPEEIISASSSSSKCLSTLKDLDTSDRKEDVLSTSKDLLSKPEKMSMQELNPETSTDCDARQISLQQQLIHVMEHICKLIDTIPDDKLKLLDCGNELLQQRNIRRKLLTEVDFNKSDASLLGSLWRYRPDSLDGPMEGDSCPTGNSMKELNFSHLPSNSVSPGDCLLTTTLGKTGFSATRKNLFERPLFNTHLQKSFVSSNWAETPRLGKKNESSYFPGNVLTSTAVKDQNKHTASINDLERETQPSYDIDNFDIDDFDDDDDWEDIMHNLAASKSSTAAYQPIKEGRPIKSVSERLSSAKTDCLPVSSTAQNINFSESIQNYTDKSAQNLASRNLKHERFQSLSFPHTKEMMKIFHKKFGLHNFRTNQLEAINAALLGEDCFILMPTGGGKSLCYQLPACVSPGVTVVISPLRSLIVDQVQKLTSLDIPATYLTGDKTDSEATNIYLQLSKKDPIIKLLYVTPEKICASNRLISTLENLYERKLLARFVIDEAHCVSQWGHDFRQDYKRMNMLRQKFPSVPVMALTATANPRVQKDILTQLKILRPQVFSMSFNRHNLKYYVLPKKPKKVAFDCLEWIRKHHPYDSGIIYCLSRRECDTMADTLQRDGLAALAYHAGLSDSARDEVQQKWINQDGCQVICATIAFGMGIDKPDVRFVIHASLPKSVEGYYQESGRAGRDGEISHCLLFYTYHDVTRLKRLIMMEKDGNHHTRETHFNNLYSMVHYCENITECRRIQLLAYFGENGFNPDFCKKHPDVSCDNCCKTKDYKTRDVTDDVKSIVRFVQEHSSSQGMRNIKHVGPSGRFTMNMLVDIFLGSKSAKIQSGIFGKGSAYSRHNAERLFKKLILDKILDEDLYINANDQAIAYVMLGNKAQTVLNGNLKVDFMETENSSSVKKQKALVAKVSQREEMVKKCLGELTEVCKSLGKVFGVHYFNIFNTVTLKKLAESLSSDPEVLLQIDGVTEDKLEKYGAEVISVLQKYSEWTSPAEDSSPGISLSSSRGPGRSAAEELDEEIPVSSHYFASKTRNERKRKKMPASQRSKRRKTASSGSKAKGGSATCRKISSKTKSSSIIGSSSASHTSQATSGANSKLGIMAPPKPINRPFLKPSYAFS
How it was run: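 Reactions were started with 100 nM DNA substrate and 2 mM ATP (final) after compound and 1 nM BLM stood 15 min at room temperature in Tris-HCl pH 8.0 buffer with NaCl, MgCl2, DTT and Tween-20. Two red-fluorescence reads 15 min apart were normalized against DMSO and no-enzyme wells.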

[4] = qHTS for Inhibitors of WRN Helicase: Thiazole Orange DNA Binding Counterscreen (AID 720499); details: thiazole orange DNA binding displacement, fluorescence; series mostly up to 57.1 µM;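 note: drop in dye fluorescence marks compound binding to DNA; nearly all actives have a fitted effect of over 60% in size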
How it was run: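 Mixture of 100 nM thiazole orange and 50 nM unlabeled DNA exposed to compound 15 min at room temperature. Dye displacement monitored by 480/530 nm fluorescence, identifying nonspecific DNA binders.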
Potency is the fitted concentration of half-maximal effect; tags give direction and shape of the fitted curve.

With CN(C)c1ccc(/C=C2/C[N+](C)(C)C/C(=C/c3ccc(N(C)C)cc3)C2=O)cc1 the Potency [1] was inconclusive: 42.6 µM [inhibitor, partial curve].
In the case of CCc1nnc(NC(=O)c2cc(-c3ccc(C)o3)nc3ccccc23)s1, the Potency [2] is reported as inconclusive: 21.5 µM [inhibitor, partial curve] and the Potency [3] is reported as “inactive”.
With COc1ccc2c(C)cc(SCC(=O)Nc3cc(C(N)=O)cc(C(N)=O)c3)nc2c1 the Potency [1] was inconclusive: 37.9 µM [inhibitor, partial curve].
With CCN1CCC(O)(/C=C/c2ccc(C(C)C)cc2)C(C(=O)/C=C/c2ccc(C(C)C)cc2)C1 (stereo not given) the Potency [2] was “inactive” and the Potency [3] was inconclusive: 24.1 µM [inhibitor, partial curve, poor fit].
In the case of COc1cc(/C=N/Nc2nnc3c(n2)[nH]c2ccccc23)ccc1O, the Potency [2] is reported as inconclusive: 12.1 µM [inhibitor, partial curve] and the Potency [3] is reported as inconclusive: 7.64 µM [inhibitor, full curve, poor fit].
For CN(C)CCN(C)Cc1c2ccccc2c(CN(C)CCN(C)C)c2ccccc12, the Potency [1] was inconclusive: 33.8 µM [inhibitor, partial curve].
In the case of COc1ccc2c(c1)N(C)/C(=C/c1cccc[n+]1C)S2, the Potency [1] is reported as inconclusive: 37.9 µM [inhibitor, partial curve].
With O=C1CC(=O)NC(SCC(=O)Nc2ccccc2[N+](=O)[O-])=N1 the Potency [1] was inconclusive: 67.5 µM [inhibitor, partial curve].
With COc1cccc(/C=C2/CCC(CN(C)C)C2=O)c1 (stereo not given) the Potency [2] was “inactive” and the Potency [3] was inconclusive: 34.1 µM [inhibitor, partial curve].
With C/C=C/c1ccc(OCCCNC(C)CC)c(OC)c1 (stereo not given) the Potency [2] was “inactive” and the Potency [3] was “inactive”.
In the case of COc1ccc(NC(=O)/C(Cl)=C(/Cl)S(=O)(=O)Cc2ccccc2)cn1, the Potency [2] is reported as inconclusive: 8.57 µM [inhibitor, partial curve] and the Potency [3] is reported as “inactive”.
For CCCCNC(C(=O)Nc1ccc([N+](=O)[O-])cc1Br)c1ccccc1 (stereo not given), the Potency [2] was “inactive” and the Potency [3] was “inactive”.
With Cc1nc(S/C(=C/c2ccc(-c3ccc(C(=O)O)cc3)o2)C(=O)O)n[nH]1 the Potency [1] was active: 47.8 µM.
With COc1cccc(/C=C(\C#N)c2nc3ccc(C)cc3[nH]2)c1OCC(=O)O the Potency [2] was active: 6.81 µM and the Potency [3] was “inactive”.
For Cc1ccc2nc(CCl)[n+]([O-])c(-c3ccccc3)c2c1, the Potency [2] was “inactive” and the Potency [3] was “inactive”.
For Cc1ccc(C(=O)NNC(=O)c2ccc(S(=O)(=O)N3CCCCC3)cc2)cc1, the Potency [2] was “inactive” and the Potency [3] was inconclusive: 21.5 µM [inhibitor, partial curve].
In the case of CC(NC(=O)COC(=O)/C=C/c1ccc([N+](=O)[O-])cc1)c1ccccc1 (stereo not given), the Potency [2] is reported as “inactive” and the Potency [3] is reported as “inactive”.
With O=C(Nc1ccccc1)c1nnsc1S(=O)c1ccc(Cl)cc1 (stereo not given) the Potency [2] was “inactive” and the Potency [3] was “inactive”.
In the case of COc1cc2c(cc1NC(=O)CSc1nc3ccccc3[nH]1)oc1ccccc12, the Potency [2] is reported as “inactive” and the Potency [3] is reported as inconclusive: 21.5 µM [inhibitor, partial curve].
For O=c1[nH]c2ccc(S(=O)(=O)N3CCN(S(=O)(=O)c4c(F)cccc4F)CC3)cc2[nH]c1=O, the Potency [1] was inconclusive: 75.7 µM [inhibitor, partial curve].
In the case of Cc1ccccc1N=Cc1cc2c(cc1O)OC(N)=C(C#N)C2c1ccccc1 (stereo not given), the Potency [2] is reported as inconclusive: 19.2 µM [inhibitor, partial curve] and the Potency [3] is reported as inconclusive: 17.1 µM [inhibitor, partial curve].
For CCOC(=O)c1c(-c2ccc(F)cc2)csc1NC(=O)CN1C(=O)NC2(CCCCC2C)C1=O (stereo not given), the Potency [2] was “inactive” and the Potency [3] was “inactive”.
In the case of O=C(COC(=O)c1ccc([N+](=O)[O-])s1)c1ccc[nH]1, the Potency [1] is reported as active: 3.38 µM.
For O=C(O)c1cccc(-n2cccc2/C=C2/NC(=O)N(c3ccc(Cl)cc3)C2=O)c1, the Potency [1] was active: 21.3 µM and the Potency [4] was inconclusive: 24.1 µM [inhibitor, partial curve].
